Among the data in the antibiotic and cytotoxicity screens of Wong et al. (2023) are cytotoxicity call and growth inhibition call values, retold here.

Some of the results follow.

One test concerns HSkMC. The test is described as follows: cytotoxicity call (relative viability < 0.9). Particulars: 10 µM.
Another test has as its system HepG2. Nature of the test: cytotoxicity call (relative viability < 0.9). Particulars: 10 µM.
A further test has as its system S. aureus RN4220. Nature of the test: growth inhibition call (relative growth <= 0.2). Particulars: 50 µM.

Turning to `C[C@@H]1CCCCO[C@H](CN(C)C(=O)Nc2ccc(F)cc2)[C@@H](C)CN([C@H](C)CO)C(=O)c2cc(NC(=O)CCC(F)(F)F)ccc2O1`, the cytotoxicity call in the test on HSkMC and in the test with HepG2 was “inactive” throughout. Moreover, the growth inhibition call in the test with S. aureus RN4220 was “inactive”.

For `Cc1ccc(S(=O)(=O)Nc2ccc3c(c2)CC(=O)N([C@@H](C)CO)C[C@@H](C)[C@@H](CN(C)Cc2ccc(C(F)(F)F)cc2)O3)cc1`, the cytotoxicity call in the test with HSkMC and with HepG2 was “active” in each case. In the test with S. aureus RN4220, the growth inhibition call is “inactive”.

On to `CNC1(C)C2CCC(C2)C1(C)C.Cl` (stereo unspecified), for which the cytotoxicity call in the test with HSkMC and with HepG2 was “inactive” in each case. Besides, the growth inhibition call in the test on S. aureus RN4220 was “inactive”.

Turning to `COc1ccc(S(=O)(=O)N(C)C[C@H]2Oc3c(NC(=O)C4CCOCC4)cccc3C(=O)N([C@@H](C)CO)C[C@H]2C)cc1`, the cytotoxicity call in the test with HSkMC and with HepG2 was “inactive” in each case. Moreover, the growth inhibition call in the test on S. aureus RN4220 was “inactive”.

For `C[C@@H]1CN([C@H](C)CO)C(=O)Cc2cc(NC(=O)Cc3ccccc3)ccc2O[C@@H]1CN(C)S(=O)(=O)c1ccc(F)cc1`, the cytotoxicity call with HSkMC and in the test on HepG2 was “inactive” throughout. For the same compound, the growth inhibition call with S. aureus RN4220 was “inactive”.

For `O=C(O)c1cccc(C(=O)O)n1`, the cytotoxicity call with HSkMC and with HepG2 was “inactive” in each case. In addition, the growth inhibition call in the test on S. aureus RN4220 was “inactive”.

Take `Cc1noc(C)c1NC(=O)N(C)C[C@@H]1Oc2ccc(NC(=O)NC(C)C)cc2CC(=O)N([C@H](C)CO)C[C@@H]1C`: the cytotoxicity call with HSkMC and with HepG2 was “inactive” in each case. In addition, in the test on S. aureus RN4220, the growth inhibition call is “inactive”.

Take `C[C@H]1CN([C@@H](C)CO)C(=O)Cc2cc(NS(C)(=O)=O)ccc2O[C@@H]1CN(C)C(=O)Nc1ccc2c(c1)OCO2`: the cytotoxicity call in the test on HSkMC and with HepG2 was “inactive” throughout. The growth inhibition call in the test with S. aureus RN4220 is “inactive”.

With `COc1ccc(CN(C)C[C@H]2OCCCC[C@H](C)Oc3ccc(NC(=O)Nc4ccc(OC)cc4)cc3C(=O)N([C@@H](C)CO)C[C@H]2C)cc1`, the cytotoxicity call with HSkMC was “inactive”. Besides, in the test with HepG2, the cytotoxicity call was “active”. Moreover, in the test with S. aureus RN4220, the growth inhibition call is “inactive”.

As to `Cc1noc(C)c1NC(=O)N(C)C[C@H]1Oc2c(NC(=O)Nc3cccc4ccccc34)cccc2C(=O)N([C@H](C)CO)C[C@@H]1C`, the cytotoxicity call in the test on HSkMC and in the test on HepG2 was “inactive” in each case. Besides, the growth inhibition call in the test on S. aureus RN4220 was “inactive”.

In the case of `COc1ccc([C@H]([C@@H](O)Cc2ccccc2)N(C[C@H](/C=C/c2ccccc2)CC(=O)N(C)C)[C@@H](Cc2ccccc2)C(OC)OC)cc1`, in the test with HSkMC, the cytotoxicity call was “inactive”. The cytotoxicity call in the test with HepG2 is “active”. For the same compound, the growth inhibition call in the test with S. aureus RN4220 was “inactive”.

Regarding `COc1ccsc1CN`, the cytotoxicity call in the test with HSkMC and with HepG2 was “inactive” each time. The growth inhibition call in the test on S. aureus RN4220 was “inactive”.

For `COCCOC(=O)N1C(=O)[C@@]2(c3cc(C#CC4(O)CCCCCC4)ccc31)[C@H](C(=O)N1CCCCCCC1)[C@H]1C(=O)O[C@H](c3ccccc3)[C@H](c3ccccc3)N1[C@@H]2c1ccc(OCCO)cc1`, the cytotoxicity call in the test with HSkMC is “inactive”. In the test with HepG2, the cytotoxicity call is “active”. Further, the growth inhibition call in the test on S. aureus RN4220 was “inactive”.

Take `COc1cccc(C(=O)Nc2ccc3c(c2)C(=O)N(C)[C@@H]2CC[C@@H](CC(=O)NCC4CC4)O[C@@H]2CO3)c1`: the cytotoxicity call in the test with HSkMC and in the test on HepG2 was “inactive” throughout. Also, the growth inhibition call with S. aureus RN4220 was “inactive”.

As for `C[C@@H]1CCCCO[C@H](CN(C)Cc2ccc(C(F)(F)F)cc2)[C@@H](C)CN([C@@H](C)CO)C(=O)c2cc(NC(=O)Nc3ccc4c(c3)OCO4)ccc2O1`, the cytotoxicity call with HSkMC and in the test with HepG2 was “active” throughout. Further, the growth inhibition call with S. aureus RN4220 is “inactive”.

For the compound `C[C@@H]1CCCCO[C@H](CN(C)Cc2ccc(Cl)c(Cl)c2)[C@@H](C)CN([C@@H](C)CO)C(=O)c2cc(NS(=O)(=O)c3ccccc3)ccc2O1`, the cytotoxicity call in the test on HSkMC and with HepG2 was “active” each time. In addition, the growth inhibition call in the test on S. aureus RN4220 was “inactive”.

With `C[C@@H]1CCCCO[C@@H](CN(C)C(=O)CCC(F)(F)F)[C@@H](C)CN([C@H](C)CO)C(=O)c2cc(NC(=O)CCC(F)(F)F)ccc2O1`, the cytotoxicity call with HSkMC and in the test with HepG2 was “inactive” each time. For the same compound, the growth inhibition call in the test with S. aureus RN4220 was “inactive”.

Turning to `CO[C@@H]1CN(C)C(=O)c2cc(NS(=O)(=O)CC(F)(F)F)ccc2OC[C@H](C)N(Cc2nccs2)C[C@H]1C`, the cytotoxicity call with HSkMC and with HepG2 was “inactive” throughout. Besides, the growth inhibition call with S. aureus RN4220 is “inactive”.

For `COc1ccc(S(=O)(=O)N(C)C[C@H]2Oc3ccc(NS(=O)(=O)c4ccc(C)cc4)cc3C(=O)N([C@@H](C)CO)C[C@@H]2C)cc1`, the cytotoxicity call in the test on HSkMC and in the test with HepG2 was “inactive” throughout. Besides, the growth inhibition call with S. aureus RN4220 was “inactive”.

Take `O=CNC(=O)c1ccccc1C(=O)O`: the cytotoxicity call in the test with HSkMC and in the test on HepG2 was “inactive” throughout. For the same compound, the growth inhibition call with S. aureus RN4220 is “inactive”.

With `C=CCN1CCC[C@@H]1C(=O)O`, the cytotoxicity call in the test with HSkMC and in the test with HepG2 was “inactive” each time. The growth inhibition call in the test on S. aureus RN4220 was “inactive”.

For `C[C@H]1CN([C@@H](C)CO)C(=O)c2cccc(NS(=O)(=O)c3cn(C)cn3)c2O[C@H]1CN(C)Cc1ccc(C(=O)O)cc1`, the cytotoxicity call with HSkMC and with HepG2 was “inactive” each time. Also, the growth inhibition call in the test with S. aureus RN4220 is “inactive”.

Regarding `C[C@H]1CCCCO[C@H](CN(C)Cc2ccc(C(F)(F)F)cc2)[C@@H](C)CN([C@@H](C)CO)C(=O)c2cc(NC(=O)Cc3ccccc3)ccc2O1`, the cytotoxicity call with HSkMC is “inactive”. The cytotoxicity call with HepG2 is “active”. Further, the growth inhibition call in the test on S. aureus RN4220 is “inactive”.

`C[C@@H]1CN([C@@H](C)CO)C(=O)Cc2cc(NC(=O)Cc3cn(C)c4ccccc34)ccc2O[C@@H]1CN(C)C(=O)Nc1ccc(C(F)(F)F)cc1`: the cytotoxicity call in the test on HSkMC and in the test on HepG2 was “inactive” throughout. For the same compound, the growth inhibition call in the test with S. aureus RN4220 was “inactive”.

`C[C@@H]1CCCCO[C@@H](CN(C)C(=O)Nc2ccc3c(c2)OCO3)[C@@H](C)CN([C@H](C)CO)C(=O)c2cc(NC(=O)NC3CCCCC3)ccc2O1`: the cytotoxicity call in the test on HSkMC (human skeletal muscle cells) and in the test on HepG2 was “inactive” in each case. Moreover, the growth inhibition call in the test on S. aureus RN4220 was “inactive”.

As to `O=C(C[C@H]1CC[C@H]2[C@@H](COC[C@H](O)CN2S(=O)(=O)c2ccc(F)cc2)O1)NCc1ccncn1`, the cytotoxicity call with HSkMC and with HepG2 was “inactive” each time. In addition, in the test on S. aureus RN4220, the growth inhibition call was “inactive”.

Consider `Cc1noc(C)c1S(=O)(=O)Nc1cccc2c1O[C@@H](CN(C)Cc1ccc(Oc3ccccc3)cc1)[C@@H](C)CN([C@H](C)CO)C2=O`, for which the cytotoxicity call in the test with HSkMC and in the test on HepG2 was “inactive” in each case. Also, the growth inhibition call in the test on S. aureus RN4220 was “inactive”.
